Laboratory results: ChEMBL document CHEMBL1201862, “PubChem BioAssay data set” (2004)
Several values for one entry are separate records, joined by “and”; a condition that tells them apart may be missing. Identical values can stand only once.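 In this assay, cells in 96-well plates receive the compound at five concentrations for 48 hours. Endpoints are linearly interpolated between the surrounding concentrations. At the GI50, growth is halved.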 Activity calls are given as the source filed them. Rule as the data show it: active = GI50 up to about 1.1 µM and inactive = higher.

Each molecule was assayed on NCI-H322M (assay: growth of human tumour cells (NCI), 48 h).
For `C/C(=C\[C@H]1C[C@@H]([C@@H]2CC[C@]34C[C@]23C=C[C@@H]2[C@@]3(C)CC=C5C[C@@H](c6ccccc6)OC[C@]5(C)[C@@H]3C[C@@H](O)[C@]24C)C(=O)O1)CO` [DICHAPETALIN A], the GI50 was inactive: 8.28 µM.
With `CC1C[C@]2(C)C(=O)N(c3ccccc3)C(=N)[C@@H]2N(C)c2ccccc21` (some centres undefined) the GI50 was inactive: > 100 µM.
`OC(c1ccc2c(c1)OCO2)c1ccc2c(c1)OCO2` was tested, and the GI50 was inactive: > 100 µM.
`O=C(O)C(O)Cc1ccccn1` (centres undefined) was tested, and the GI50 was inactive: > 100 µM.
With `CC(=O)OCC1OC(n2c(=S)n(-c3ccccc3)c(=O)c3cc(Br)cc(Br)c32)C(OC(C)=O)C(OC(C)=O)C1OC(C)=O` (centres undefined) the GI50 was inactive: > 100 µM.
With `c1cncc(CC2(c3cc4ccccc4[nH]3)OCCO2)c1` the GI50 was inactive: > 100 µM.
`CSc1nc(=S)[nH]c2[nH]nc(C)c12` was tested, and the GI50 was inactive: > 100 µM.
`COC(=O)C1=C(c2cc(OC)c(OC)c(OC)c2)O[C@H](c2ccc3c(c2)OCO3)[C@H]1COC(C)=O` was tested, and the GI50 was inactive: 60.5 µM.
`C=CCc1cc(OC)c2c(c1)C(OC)CC(c1ccc(OC)c(OC)c1)O2` (centres undefined) was tested, and the GI50 was inactive: > 100 µM.
In the case of `CN(C)CCNc1c([N+](=O)[O-])sc2ccc(Cl)cc12`, the GI50 is reported as inactive: 4.24 µM.
With `COC(=O)/C=C(\C)CC/C=C(\C)CCC1OC1(C)C` (centres undefined) the GI50 was inactive: 43 µM.
For `CCCCOc1ccc(S(=O)(=O)/N=C(\NN)Nc2ccc(Cl)cc2)cc1`, the GI50 was inactive: 36.2 µM.
`COc1cc2c(c(OC)c1OC)-c1ccc(OC)c(=O)cc1[C@@H](N(C)C=O)CC2` was tested, and the GI50 was active: 0.0152 µM.
With `CCC(Nc1ncnc2nc[nH]c12)C(=O)O` (centres undefined) the GI50 was inactive: > 100 µM.
For `CC[C@@]1(O)C[C@H](OC2CC(N(C)C)C(OC3CC(O)C(OC4CCC(=O)C(C)O4)C(C)O3)C(C)O2)c2c(cc3c(c2O)C(=O)c2c(O)ccc(O)c2C3=O)[C@H]1C(=O)OC` (some centres undefined), the GI50 was active: 0.00113 µM.
`CC(=O)C1=CSC2[C@H](NC(=O)Cc3ccccc3)C(=O)N2C1C(=O)OC(c1ccccc1)c1ccccc1` (some centres undefined) was tested, and the GI50 was inactive: > 100 µM.
`c1cncc(C2c3[nH]c4ccccc4c3CCN2CCN2CCCCC2)c1` (centres undefined) was tested, and the GI50 was inactive: > 100 µM.
`O=C1/C(=C/c2ccccc2S)N=C(c2ccccc2)N1c1nc2c(Cl)cc(Cl)cc2s1` was tested, and the GI50 was inactive: 23.9 µM.
`CCCCCCCCCCCCCCCC(=O)OCC1OC(OC)C(NC(=O)N(CCCl)N=O)C(O)C1O` (centres undefined) was tested, and the GI50 was inactive: 19.3 µM.
In the case of `CCOc1cc(NC(C)=O)ccc1C(=O)NN1C(=O)CSC1c1ccccc1` (centres undefined), the GI50 is reported as inactive: > 100 µM.
With `O=c1[nH]c(=O)n(C2CC(O)C(CO)O2)cc1C#Cc1c(F)c(F)c(F)c(F)c1F` (centres undefined) the GI50 was inactive: > 100 µM.
In the case of `CN(C)Cc1ccc(-c2cc3onc(-c4ccccc4)c3c(=O)n2C)cc1`, the GI50 is reported as inactive: 40.7 µM.
For `Cc1ccccc1C1CC(=O)CC(c2ccccc2C)C12C(=O)NC(=O)NC2=O` (centres undefined), the GI50 was inactive: > 100 µM.
`NS(=O)(=O)c1ccc(-n2c(-c3cccs3)nc3ccc(I)cc3c2=O)cc1` was tested, and the GI50 was inactive: 25.1 µM.
`Cc1nc(-n2nc(-c3ccccc3)cc2-c2ccccc2)sc1C(/C=C\c1ccc([N+](=O)[O-])cc1)=N/NC(=S)NN` was tested, and the GI50 was inactive: > 54.1 µM.
With `O=C(/C=C/c1ccccc1)CCC1C(=O)NC(=O)NC1=O` the GI50 was inactive: > 100 µM.
In the case of `Cc1ccc(NC(=O)c2cccc([N+](=O)[O-])c2O)c([N+](=O)[O-])c1`, the GI50 is reported as inactive: 19.8 µM.
With `OCCCCn1cnc2c(O)ncnc21` the GI50 was inactive: > 100 µM.
For `O=S(=O)(CC1=NC2C=CC=CC2N=C1)NCc1ccccc1` (centres undefined), the GI50 was inactive: > 100 µM.
`O=C1c2cccnc2-c2nccc3c2c1nc1ccccc13` [ASCIDIDEMIN] was tested, and the GI50 was active: 0.105 µM.
In the case of `N=C(c1ccc(-c2cn3cc(C(=N)N4CCCC4)ccc3n2)cc1)N1CCCC1`, the GI50 is reported as inactive: > 100 µM.
With `Cc1ccc(NCCN(C)C)c2c(=O)c3cc(O)ccc3sc12` the GI50 was inactive: 6.64 µM.
With `Cc1cc(-c2ccc(C(=O)C(c3ccccc3)(c3ccccc3)c3ccccc3)[nH]2)on1` the GI50 was inactive: 15.9 µM.
With `COc1cc2c3cc1Oc1c(OC)c(OC)cc4c1C(Cc1ccc(cc1)Oc1cc(ccc1O)CC3N(C)CC2)N(C)CC4` (centres undefined) the GI50 was inactive: 17.7 µM and inactive: 11.7 µM.
